Data: PubChem BioAssay AID504832 (National Center for Advancing Translational Sciences (NCATS), 2011)
About 18,000 (5.8%) of roughly 310,000 compounds were called active. The inconclusive results got no clear call from the source; some entries with a clear call stand among them for comparison. Calls follow the shape of the dose curve; as a rule, active = well fitted inhibition curve with a large enough effect; inconclusive = small, poorly fitted or top-dose-only effect, or another doubt; inactive = no such curve, though single readings can be large or run the other way. No potency is given beside an inconclusive call; the fits are too rough.

Assay: Primary qHTS for delayed death inhibitors of the malarial parasite plastid, 48 hour incubation
Conditions: P. falciparum luciferase growth in erythrocytes; series mostly up to 28.7 µM
Procedure, shortened: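 A one-generation exposure of luciferase-tagged malaria parasites in RPMI 1640/Albumax erythrocyte culture, 37 C and 5% CO2. Inhibition is inferred from decreased luminescence after adding detection reagent.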
Potency is read from the fitted curve at half-maximal effect; tags tell the direction and shape of the fitted curve.

Compound	Potency
CCOC(=O)c1c(C)[nH]c(C)c1C(=O)COC(=O)c1ccccc1O	inconclusive [inhibitor, single point]
Cc1ccc2c(c1)COc1c3ccc(C(=O)O)cc3nn1-2	inactive
Cc1[nH]c2ccc(F)cc2c1CCN(Cc1ccncc1)C(=S)Nc1cccc(F)c1	inconclusive [inhibitor, partial curve, poor fit]
CCOc1ccc(C(=O)OCC(=O)N(Cc2ccccc2)Cc2ccccc2)cc1OC	active: 11.7 µM
Cc1ccc(CN(Cc2cc3cc(C)ccc3[nH]c2=O)C(=O)N2CCOCC2)cc1	active: 6.57 µM
CCCCCCCCCCCCCCCCn1cc[n+](C)c1	active: 3.29 µM
C=CCNC(=O)C1CCN(c2ccc(S(=O)(=O)N3CCOCC3)cc2Cl)CC1	active: 9.28 µM
Cc1c(-c2ccccc2)nc2ccccc2c1C(=O)OCC(=O)Nc1ncc(C(F)(F)F)cc1Cl	inconclusive [inhibitor, partial curve, poor fit]
CCCCOc1ccc(C(=O)NCC(=O)NCC(c2ccc(OC)cc2)N2CCCC2)cc1 (configuration not stated)	inconclusive [inhibitor, single point]
COc1ccc(/C=N/NC(=O)CNc2n[nH]c(=O)[nH]c2=O)cc1OC	inconclusive [inhibitor, single point]
COCCOCC(O)CN1CCN(c2ccccc2)CC1 (configuration not stated)	inactive
Cc1ccccc1-c1nnc(SCC(=O)NC2CCCCC2)o1	inconclusive [inhibitor, partial curve, poor fit]
COc1ccc(C2CC(c3ccc4ccccc4c3)=NN2C(=O)CSc2ncccn2)cc1 (configuration not stated)	inconclusive [inhibitor, single point]
COc1ccc(CCNC(=O)C2CCN(S(=O)(=O)c3ccc(F)cc3)CC2)cc1	inconclusive [inhibitor, partial curve]
COc1ccccc1CNS(=O)(=O)c1ccc2c(c1)CC(C)N2C(=O)C1CCC1 (configuration not stated)	inconclusive [inhibitor, single point]
O=C(Nc1ccc(-n2cc(Cl)cn2)cc1)c1ccncc1	inactive
CC(C)CNC(=O)C(=O)NCC1OCCCN1S(=O)(=O)c1cccs1 (configuration not stated)	inactive
NC1=NC[C@H](c2ccccc2)N1CCc1cc(C(F)(F)F)cc(C(F)(F)F)c1	active: 13.1 µM
Cc1cc(=O)[nH]c(-n2ncc(C#N)c2N)n1	inactive
COc1ccc(S(=O)(=O)N2CCN(CCOc3ccccc3Cl)CC2)cc1OC	inconclusive [inhibitor, single point]
CCn1nc(C(=O)Nc2cccc(S(=O)(=O)N3CCCC3)c2)c2ccccc2c1=O	active: 13.1 µM
CCCn1c(=N)n(CC(O)c2ccc(C)cc2)c2ccccc21 (configuration not stated)	active: 5.22 µM
COc1ccc(CCN(C)C(=O)c2cccc(S(=O)(=O)NCc3ccccc3)c2)cc1OC	inconclusive [inhibitor, full curve, poor fit]
Cc1ccc(CNC(=O)c2cc(S(=O)(=O)N3CCCCC3)ccc2N2CCOCC2)cc1	active: 8.28 µM

Compound	Potency
O=C(CN1C2CCCC1CC(NC(=O)c1ccccc1)C2)Nc1ccccc1 (configuration not stated)	inconclusive [inhibitor, partial curve, poor fit]
Cc1c(C(=O)NCc2cccnc2)sc2nc(-c3ccccc3)cn12	inconclusive [inhibitor, single point]
CC(C)C(NC(=O)c1c(F)cccc1F)C(=O)N1CCN(S(=O)(=O)c2ccc(F)cc2)CC1 (configuration not stated)	inconclusive [inhibitor, single point]
CCOC(=O)c1ccc(Nc2nnc(C(C)(C)C)c(=O)[nH]2)cc1	active: 5.22 µM
CC(C)CCNC(=O)CCCc1ccccc1	inactive
Cc1cc(C)c2c(CC(=O)Nc3nccs3)coc2c1	inactive
CN(C)c1ccc(C(C(=O)NCC2CCCO2)N(C(=O)c2snc(C(N)=O)c2N)c2ccccc2)cc1 (configuration not stated)	active: 2.94 µM
COc1ccc(CCNC(=O)c2ccc3c(c2)NC(=O)C(N2CCOCC2)S3)cc1OC (configuration not stated)	inactive
O=S(=O)(Nc1ccc(O)c2ccccc12)c1ccc(Br)cc1	active: 4.65 µM
NC1=NC2=C(CCCC2)C2(CCCCC2)S1	active: 13.1 µM
Cc1ccc(-c2cnn3c(N4CCOCC4)cc(C)nc23)cc1	inactive
COc1cccc(Nc2ncnc3sc(C)cc23)c1	inconclusive [inhibitor, single point]
C[C@@H]1CC=C[C@H]2[C@H]1C(=O)N(Cc1ccccc1)[C@H]2c1ccc(F)c(/C=C/c2ccccc2)c1	inconclusive [inhibitor, single point]
Cc1onc(-c2ccccc2Cl)c1C(=O)Nc1cccc(-c2nc3ncccn3c2C)c1	inconclusive [inhibitor, single point]
C/C(=N\NC(=O)c1ccc2c(c1)OCO2)c1cccnc1	inactive
NC1=NC(S)C2N=CN=C2N1 (configuration not stated)	inconclusive [inhibitor, single point]
CCc1ccc2nc(NC(=O)CSCc3c(C)noc3C)sc2c1	inactive
CCCOP(=O)(OCCC)C(NC(=O)c1cc(OC)c(OC)c(OC)c1)c1ccccc1 (configuration not stated)	inconclusive [inhibitor, partial curve, poor fit]
COc1ccc([C@]23Cc4cc(C#N)ccc4C(O2)c2c(cc(C)n(-c4ccccc4)c2=O)O3)cc1	inconclusive [inhibitor, partial curve]
O=c1c2cc(F)ccc2sn1-c1ccccc1	active: 4.15 µM
CCC(C)NC(=O)CNC(=S)N(Cc1ccc(F)cc1)C1CCCCC1 (configuration not stated)	inconclusive [inhibitor, single point]
Cc1cccc(NC(=O)c2ccc(Cl)c(S(=O)(=O)N3CCc4ccccc43)c2)n1	active: 11.7 µM
CCOc1ccc(/C=C/C(=O)N(CC)CC(=O)NCc2cccs2)cc1OC	inactive
COC(=O)CSc1nnc(CNc2ccc(Cl)cc2)n1Cc1ccccc1	inconclusive [inhibitor, partial curve]

Compound	Potency
O=C(Nc1ccncc1)Nc1ccncc1	inconclusive [inhibitor, partial curve, poor fit]
CCN(CC)S(=O)(=O)c1ccc(/C=C/C(=O)OCC(=O)Nc2cccnc2Cl)cc1	inactive
CC1=C([N+](=O)[O-])C(c2ccc(O)c(O)c2)NC(=O)N1 (configuration not stated)	inconclusive [inhibitor, full curve, poor fit]
O=[N+]([O-])c1cccc(-c2cn(-c3ccccc3)c(=S)[nH]2)c1	inconclusive [inhibitor, full curve, poor fit]
CC1C(=O)N(Cc2ccccc2F)c2ccccc2N1C(=O)c1c(F)cccc1F (configuration not stated)	inconclusive [inhibitor, partial curve, poor fit]
CC(=O)NC1=NN(C(C)=O)C(c2ccccn2)S1 (configuration not stated)	inactive
Cc1ccc(NC(=O)CN2CCC(NC(=O)c3cccc(F)c3)CC2)cc1C	inconclusive [inhibitor, partial curve, poor fit]
CN(CC(=O)Nc1ccc(N2CCOCC2)cc1)C(=O)CC(c1ccccc1)c1ccccc1	inconclusive [inhibitor, full curve, poor fit]
CS(=O)(=O)N(Cc1ccc(C(=O)NCc2ccco2)cc1)c1ccccc1	inconclusive [inhibitor, single point]
CN(C(=O)CN1C(=O)/C(=C/c2ccc(F)cc2)SC1=S)C1CCS(=O)(=O)C1 (configuration not stated)	inactive
O=C(c1ccc2c(c1)N(Cc1cccc(Cl)c1)C(=O)c1ccccc1S2(=O)=O)N1CCN(c2ccccn2)CC1	inconclusive [inhibitor, partial curve]
CC(NC(=O)c1cc(-c2ccncc2)nc2ccc(Br)cc12)C1CCCO1 (configuration not stated)	inconclusive [inhibitor, single point]
COc1ccc(C(=O)C2CCN(C(=O)c3ccc(OC)cc3)CC2)cc1	inconclusive [inhibitor, partial curve]
Cc1cc(C)cc(NC(=O)C(Sc2nnc(C)c(=O)[nH]2)c2ccccc2)c1 (configuration not stated)	inactive
Cn1c(NC(=O)c2cccnc2)nc2ccccc21	inconclusive [inhibitor, single point]
C=CCNC(=S)N1CCN(c2ccc([N+](=O)[O-])cc2)CC1	active: 1.65 µM
C#CCOCCOCCOCCNc1nc(N2CCOCC2)nc(N2CCN(C(=O)[C@H]([C@@H](C)CC)n3cc(CCCCN)nn3)CC2)n1	inconclusive [inhibitor, partial curve]
NS(=O)(=O)c1ccc(CCNC(=O)c2ccc3nc4ccc(Cl)cc4c(=O)n3c2)cc1	active: 11.7 µM
O=C(CSc1nnc(-c2ccc(O)cc2)n1-c1ccccc1)CC(=O)Nc1ccccc1	inactive
CC(C)Oc1ccccc1C1CC(=O)Nc2cc3c(cc21)OCCO3 (configuration not stated)	inconclusive [inhibitor, single point]
CCOC(=O)c1ccc(-c2c(-c3cc(OC)c(OC)c(OC)c3)noc2C)cc1F	inconclusive [inhibitor, single point]
COc1ccc(NC(C)C(=O)N/N=C/c2ccccc2OCc2ccc(Br)cc2)cc1 (configuration not stated)	active: 9.28 µM
Cc1ccc(-c2nnc(N(C)C(=O)c3ccncc3)s2)cn1	inactive
CC1CN(C(=S)SCC(=O)c2ccc([N+](=O)[O-])cc2)CC(C)O1 (configuration not stated)	inconclusive [inhibitor, single point]
